# Laboratory results taken from PubChem BioAssay AID686978 (National Center for Advancing Translational Sciences (NCATS), 2013).
# Among all 420,000 compounds or so, about 64,000 (15%) were called active. This list was built around the results that the source calls inconclusive (neither active nor inactive); the mix of calls is not that of the screen. The call rests on the fitted dose curve; in most records, active means well fitted inhibition curve with a large enough effect; inconclusive means small, poorly fitted or top-dose-only effect; inactive means flat fitted curve, though single readings scatter. No potency is given beside an inconclusive call; the fits are too rough. Some structures have more than one record in an assay (separate samples or runs), and their calls can disagree.
# Assay: qHTS for Inhibitors of human tyrosyl-DNA phosphodiesterase 1 (TDP1): qHTS in cells in absence of CPT; further: nearly all actives have a fitted effect of over 55% in size
# Details: DT40 Tdp1-/- hTDP1 cells, no CPT, ATP luminescence, 48 h; activity change, negative = growth inhibition: at 46.2 µM (top of the series) unless noted
# Summary of the method: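 Stably hTDP1-transfected Tdp1-null chicken DT40 cells were treated with library compounds minus camptothecin and grown for at least 48 hr at 37 °C, after which cellular ATP was quantified by luminescence.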
# On the % scale 0 is the no-effect control and ±100 the full control effect; potency means the concentration at half of the fitted maximal effect; tags describe the fitted curve by direction and shape.
Structure (SMILES),Potency,"activity change, negative = growth inhibition"
C/C=C/C1=CC(=O)C[C@H](c2ccc(F)cc2)C1,"inconclusive [inhibitor, single point]",
COc1ccc(CCNc2ccc(C(=O)O)cc2[N+](=O)[O-])cc1OC,,inactive: 8.48%
COc1ccc2c(c1)-c1nc(-n3ncc(C(=O)N(C)C(C)c4ccon4)c3C3CC3)ncc1CC2 (stereo unspecified),"inconclusive [inhibitor, single point]",
O=S(=O)(c1ccc(-c2cc(C(F)(F)F)on2)s1)N1CCN(c2ccc(F)cc2)CC1,"inconclusive [inhibitor, single point]",
CCOC(=O)c1ccc(NC(=O)CSc2nc(C)nc3c2c(=O)n(C)c(=O)n3C)cc1,"inconclusive [inhibitor, single point]",
Cn1c(=O)c2c(nc(Br)n2Cc2nnc(N)s2)n(C)c1=O,,inactive: 10.9%
COc1cc(/C=C/C(=O)O)cc(S(=O)(=O)Nc2ccc3c(c2)CCC3)c1OC,,inactive: -28.2%
OC(c1ccc(F)cc1)c1ncc(-c2ccc3ccccc3c2)[nH]1 (stereo unspecified),"inconclusive [inhibitor, single point]",
O=C(c1cc(C(F)(F)F)cc(C(F)(F)F)c1)N1CCC2(CC1)CN(c1ncccn1)C2,"inconclusive [inhibitor, single point]",
OC(c1ccc(F)c(F)c1)c1nc(-c2ccc3c(c2)OCO3)cs1 (stereo unspecified),"inconclusive [inhibitor, single point]",
CCc1ccccc1OCCOc1ccc(C)cc1OC,active: 29.1 µM,
CC(C)Oc1ccc(C(=O)NC2CCN(Cc3ccccc3)CC2)cc1,"inconclusive [inhibitor, single point]",
CCCn1cc(SCC(=O)NCc2ccco2)c2ccccc21,,inactive: -11.1%
O=C(CNS(=O)(=O)c1ccccc1)NCC(=O)OCc1ccc(Br)cc1,"inconclusive [inhibitor, single point]",
COc1cc(NC(=O)c2cccc(S(=O)(=O)N3CCCCC3)c2)cc(OC)c1OC,"inconclusive [inhibitor, single point]",
Clc1ccc2nc(-c3ccccc3)c(CN3CCOCC3)n2c1,"inconclusive [inhibitor, single point]",
O=C1NCC(c2ccccc2)C1C(=O)N/N=C/c1ccc(Cl)s1 (stereo unspecified),,inactive: 6.94%
COc1cccc(/C=N/NC(=O)C(C)n2nc(C)c([N+](=O)[O-])c2C)c1O (stereo unspecified),active: 1.03 µM,
Cc1ccc(NC(=O)C2CCN(S(=O)(=O)c3ccc4c(c3)OCCO4)CC2)c(O)c1,,inactive: -15.2%
COc1ccc(NC(=O)CC2(CC(=O)N3CCOCC3)CCCC2)cc1Cl,"inconclusive [inhibitor, partial curve, poor fit]",
CC1=C(c2ccc(C(C)C)cc2)S(=O)(=O)NC1=NCCCN1CCN(c2ccccc2F)CC1,"inconclusive [inhibitor, single point]",
OCCNCCCCSc1ccc(Cl)cc1,"inconclusive [inhibitor, single point]",
Cc1cc(C)nc(N(C#N)CCOc2ccccc2)n1,"inconclusive [inhibitor, single point]",
CC1(C)C2CCC13CS(=O)(=O)NC3C2 (stereo unspecified),,inactive: -2.28%

Structure (SMILES),Potency,"activity change, negative = growth inhibition"
C#C[C@]1(O)CC[C@H]2[C@@H]3CCc4cc(OC5CCCC5)ccc4[C@H]3CC[C@@]21C,active: 8.2 µM,
COC(=O)C1=CN(c2cccc(OCc3ccccc3)c2)C(N)=C(C#N)C1c1ccccc1 (stereo unspecified),"inconclusive [inhibitor, single point]",
O=C(N/N=C/c1c[nH]c2ccc(Br)cc12)C1CC1,"inconclusive [inhibitor, partial curve, poor fit]",
N#Cc1ccc(-c2nc3ccc(Cl)cn3c2Cc2cccc(F)c2)cc1,"inconclusive [inhibitor, single point]",
CCS(=O)(=O)N1CCc2cc(C(=O)Nc3ccc(C(=O)OC)cc3)ccc21,"inconclusive [inhibitor, partial curve]",
CC1C(=O)N2CCCc3cc(S(=O)(=O)NCCc4ccccc4)cc1c32 (stereo unspecified),,inactive: -26.7%
OC(Cn1cncn1)(c1ccc(F)cc1)c1ccc(Cl)cc1 (stereo unspecified),"inconclusive [inhibitor, single point]",
COc1ccccc1CN1C(=O)C(=O)N(Cc2cccc(C)c2)C1=O,,inactive: 0.242%
CCn1c(SCC(=O)N2CCN(c3ccccc3)CC2)nnc1-c1c[nH]c2ccccc12,"inconclusive [inhibitor, partial curve]",
COc1cc(NC(=O)COC(=O)c2ccc(C)c(S(=O)(=O)N3CCCCC3)c2)c(C)cc1[N+](=O)[O-],"inconclusive [inhibitor, single point]",
NC(=O)CC(NC(=O)c1ccc(Br)cc1)c1ccc(N2CCCCCC2)c([N+](=O)[O-])c1 (stereo unspecified),active: 16.4 µM,
Cc1ccc(NC(=O)Cn2c(=O)c3ccccc3n3nncc23)cc1,"inconclusive [inhibitor, single point]",
CCCN1CCC(NC(=S)Nc2ccc([N+](=O)[O-])cc2)CC1,"inconclusive [inhibitor, single point]",
Cc1ccc(OCCC(=O)Nc2cc(S(=O)(=O)N3CCOCC3)ccc2N2CCCC2)cc1,active: 14.6 µM,
CCSc1oc(-c2ccco2)nc1S(=O)(=O)c1ccc(Br)cc1,"inconclusive [inhibitor, single point]",
O=C(CCN1C(=O)S/C(=C\c2ccccc2)C1=O)NCCCn1ccnc1,"inconclusive [inhibitor, partial curve]",
CCN1CCN(c2ccc(NC(=O)c3ccc4c(c3)[nH]c(=O)n4Cc3ccc(OC)cc3)cc2)CC1,"inconclusive [inhibitor, single point]",
OC(CNC1CCCC1)COCCOc1ccc(Br)cc1 (stereo unspecified),"inconclusive [inhibitor, single point]",
CC(=O)OCC1OC(n2c(S)c(C#N)c(-c3ccccc3)c(C#N)c2=O)C(OC(C)=O)C(OC(C)=O)C1OC(C)=O (stereo unspecified),"inconclusive [inhibitor, partial curve]",
Cc1nnc(SCC(=O)N(C)c2ccccc2)n1-n1cccc1,,inactive: 27.8%
Cc1cc2c(SCc3ccccc3Cl)nc(N)nc2nc1C,"inconclusive [inhibitor, partial curve]",
O=c1c(-c2cc(F)cc(F)c2)nc2cncnc2n1C1CC1,,inactive: 1.23%
Cc1[nH]c(=O)c(C#N)cc1-c1ccncc1,active: 0.0596 µM,
CCN(CC)S(=O)(=O)c1ccc(C)c(NC(=O)COc2ccc3c(C)cc(=O)oc3c2)c1,"inconclusive [inhibitor, single point]",

Structure (SMILES),Potency,"activity change, negative = growth inhibition"
CCCNC(=O)[C@H]1O[C@@H]1C(=O)N[C@H](C(=O)N1CCC[C@H]1C(=O)OC)[C@@H](C)CC,active: 2.42 µM,
O=c1c2ccccc2oc2ccc(-c3ccoc3)cc12,"inconclusive [inhibitor, full curve, poor fit]",
COC(=O)CCNC(=O)NC(CCC(C)C)c1c(-n2cccc2)sc2c1CCN(C)C2 (stereo unspecified),"inconclusive [inhibitor, single point]",
Cc1ccccc1N1CCN(Cc2c[nH]c3ccccc23)CC1,active: 6.51 µM,
O=C1CCCN1c1ccc(S(=O)(=O)Oc2ccc(Cl)cc2)cc1[N+](=O)[O-],active: 20.6 µM,
CCN1c2ccccc2-c2nc(SCC(=O)NCc3ccccc3)ncc2S1(=O)=O,active: 23.1 µM,
OCCCNC(=S)Nc1ccc(Oc2ccccc2)cc1,,inactive: -16.6%
COc1ccc(-c2n[nH]c(=S)n2-c2cc(OC)ccc2OC)cc1,,inactive: -24.2%
Cc1ccccc1NC(=O)COC(=O)COc1ccc2ccc(=O)oc2c1,"inconclusive [inhibitor, single point]",
COc1cc(OC)cc(-c2sc3ccc(OC)cc3c2-c2ccc3cc[nH]c3c2)c1,,inactive: -9.7%
COc1ccc(CCNC[C@H](O)c2ccc(O)cc2)cc1OC,"inconclusive [inhibitor, single point]",
CCOc1ccc(Cl)cc1CNCCCSc1nc(C)cc(C)n1,"inconclusive [inhibitor, single point]",
Cc1ccc(-c2nn(-c3ccc(F)cc3)c3c2cnc2cc(F)c(F)cc23)cc1,"inconclusive [inhibitor, full curve, poor fit]",
Cc1cccc2sc(N3CCN(C(=O)c4cccs4)CC3)nc12,,inactive: -28.2%
CCC/C=C/c1ccc(CN2C(C)C(=O)N(Cc3cn(CCC4OCCO4)nn3)CCS2(=O)=O)cc1 (stereo unspecified),active: 14.6 µM,
Clc1ccc(-c2csc3ncnc(N4CCc5ccccc5C4)c23)cc1,active: 20.6 µM,
CCN(CC)CCOc1ccc(Br)cc1,,inactive: -19.4%
Cc1cccc(COC(=O)Nc2ccc(NC(=O)c3ccccc3Cl)cc2)c1,"inconclusive [inhibitor, full curve]",
Cc1ccc(C(C)(C)NC(=O)C2CCC(=O)N(Cc3ccccc3F)C2)cc1 (stereo unspecified),"inconclusive [inhibitor, single point]",
Cc1cccc(C)c1-n1nnnc1C1c2ccccc2C(=O)N1CCCn1ccnc1 (stereo unspecified),,inactive: -25%
Cc1ccc2nc(-c3ccc(O)cc3)c(Nc3ccc(Cl)cc3)n2c1,"inconclusive [inhibitor, single point]",
CCOCCOC(=O)COc1ccc2c(-c3ccccc3)cc(=O)oc2c1,,inactive: -16.7%
CCC(=O)N1CCc2cc(S(=O)(=O)NCCC(=O)Nc3cc(C)ccc3OC)ccc21,,inactive: -19.1%
